Experimental data: patent US20070092504A1 (Pfizer, published 2007)

Molecular target: human PD-1 on human T cells (CD4+ T cells from PBMC; Jurkat T cells) (human, UniProt Q15116)
Test: cell-based or functional assay

proliferation of human CD4+ T cells (3H-thymidine, 96 hours), anti-CD3 mAb/PD-L1.Ig beads relative to anti-CD3 mAb/control Ig beads: 69 % decrease
B1: human PD-L1.Ig (extracellular region of human PD-L1 fused to hinge-CH2-CH3 of murine Ig gamma 2a) (Fc fusion)
chain: not shown
notes: domain: hinge-CH2-CH3; also called PD-L1-Fc; hPD-L1.Fc
